Assay results: paper PMC4336329 (PLoS ONE, 2015)
About 2,200 (0.71%) of roughly 310,000 compounds showed an effect of 50% or more. Effects have a minus sign here. Some of the results follow.

Biological target: human ether-à-go-go-related gene (hERG) potassium channel (human, UniProt Q12809)
Experiment: primary screen, population patch clamp on CHO cells stably expressing hERG

human ether-à-go-go-related gene (hERG) potassium channel, sequence (Q12809 whole entry, looked up): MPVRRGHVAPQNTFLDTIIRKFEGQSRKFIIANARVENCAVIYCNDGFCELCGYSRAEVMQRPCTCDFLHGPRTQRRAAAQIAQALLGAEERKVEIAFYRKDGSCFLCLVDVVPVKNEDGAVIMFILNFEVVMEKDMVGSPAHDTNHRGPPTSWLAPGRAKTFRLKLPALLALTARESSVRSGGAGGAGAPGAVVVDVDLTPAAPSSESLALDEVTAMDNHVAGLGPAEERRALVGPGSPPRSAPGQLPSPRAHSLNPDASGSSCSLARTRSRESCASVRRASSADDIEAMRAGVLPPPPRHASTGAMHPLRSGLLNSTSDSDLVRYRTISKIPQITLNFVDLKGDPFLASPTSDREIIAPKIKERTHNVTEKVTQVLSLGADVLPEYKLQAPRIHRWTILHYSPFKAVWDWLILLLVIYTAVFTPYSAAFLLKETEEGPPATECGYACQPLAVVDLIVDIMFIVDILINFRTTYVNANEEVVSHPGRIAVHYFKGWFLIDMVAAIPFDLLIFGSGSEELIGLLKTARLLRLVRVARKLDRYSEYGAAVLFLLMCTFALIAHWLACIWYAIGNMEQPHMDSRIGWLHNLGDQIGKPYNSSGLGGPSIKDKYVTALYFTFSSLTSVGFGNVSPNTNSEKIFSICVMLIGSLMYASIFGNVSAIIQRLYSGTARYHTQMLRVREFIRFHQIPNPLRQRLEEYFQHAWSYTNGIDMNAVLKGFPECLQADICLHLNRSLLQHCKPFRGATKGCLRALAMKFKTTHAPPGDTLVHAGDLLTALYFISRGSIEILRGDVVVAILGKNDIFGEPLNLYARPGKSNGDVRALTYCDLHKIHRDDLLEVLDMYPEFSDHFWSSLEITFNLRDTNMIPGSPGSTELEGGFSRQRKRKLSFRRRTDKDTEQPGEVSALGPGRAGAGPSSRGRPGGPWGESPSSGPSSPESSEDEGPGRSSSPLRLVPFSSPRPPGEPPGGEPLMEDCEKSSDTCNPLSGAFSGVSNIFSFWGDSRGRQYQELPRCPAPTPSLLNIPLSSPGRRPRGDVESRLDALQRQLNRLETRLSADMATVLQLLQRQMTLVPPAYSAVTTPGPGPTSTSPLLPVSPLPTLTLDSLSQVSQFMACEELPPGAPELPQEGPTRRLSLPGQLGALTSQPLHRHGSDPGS

Compound | hERG current change (%, negative = inhibition) at 1uM
COc1ccc(OC)c(NC(=O)CSc2ccc3ccccc3c2)c1 | 1.53%
Cc1onc(-c2c(Cl)cccc2Cl)c1NC(=O)NNc1c(Cl)cncc1Cl | 6.76%
COc1ccc(NC(C)=O)cc1S(=O)(=O)N1CCn2cccc2C1C (stereo not drawn) | 2.1%
Cn1c(SCC(=O)NCc2cccs2)nnc1-c1ccco1 | 0.315%
C/C(=N\NC(=O)C1COc2ccccc2O1)c1ccccn1 (stereo not drawn) | 5.55%
COc1ccc(NC(=O)C2C3CC/C=C\CCC32)cc1 (stereo not drawn) | 12.2%
CC1CCCN(c2nc3c(c(=O)n(C)c(=O)n3C)n2Cc2ccccc2)C1 (stereo not drawn) | 7.01%
CCn1c(SCC(=O)Nc2sc(C)c(C)c2C#N)nnc1C1CC1 | 3.68%
O=C(N/N=C1\CCc2ccccc21)c1ccncc1 | 18.5%
COc1ccc2[nH]c(C)c(CCNC(=S)Nc3cccc(C)c3)c2c1 | 12.5%
CCCCCCn1c(CN2CCN(Cc3ccccc3)CC2)nc2c1c(=O)n(C)c(=O)n2C | -47.2%
COc1ccc(CN(C)C(=O)CNC(=O)c2cccs2)c(OC)c1 | 10.9%
COc1ccc(OC)c(NC(=O)CCOc2cccc(C)c2)c1 | 9.09%
CCOc1ccc2[nH]c(=O)c(CN(CC3COCCO3)C(=O)C3CC3)cc2c1 (stereo not drawn) | 19.8%
CC(=O)Oc1cccc(NC(=O)c2cccc(C(=O)Nc3cccc(OC(C)=O)c3)c2)c1 | 13.3%
FC(F)(F)c1ccc(NCCc2ccccc2)nc1 | 17%
N#Cc1c(N)nc(-c2ccccc2)nc1-c1ccccc1 | 13.8%
Cc1onc(NC(=O)c2ccc(Cl)cc2Cl)c1Br | 11.6%
CCOc1ccc(Oc2ccc(NC(=O)[C@@H](NC(N)=O)[C@@H](C)CC)cc2)cc1 | 10.5%
COc1ccc(-n2c(C)cc(C(=O)CN3C(=O)NC4(CCc5ccccc54)C3=O)c2C)cc1 (stereo not drawn) | 10.9%
Cn1c(C(=O)NCCc2ccsc2)cc2c(=O)n(C)c3ccccc3c21 | 5.43%
O=C1NC(=O)C(=Cc2ccc(N3CCOCC3)o2)C(=O)N1 | 20.6%

Compound | hERG current change (%, negative = inhibition) at 1uM
Cc1cc(Nc2cccc(F)c2)nc(N2CCOCC2)n1 | 1.43%
O=C1C(Cl)=C(N2CCCCCC2)C(=O)N1c1ccc(Cl)cc1 | 15.5%
CCn1cc(C(=O)NCc2ccco2)c(=O)c2cc(S(=O)(=O)N3CCC(C)CC3)ccc21 | -12.2%
O=[N+]([O-])c1ccc(N=NN(CCO)CCO)cc1 | -32.7%
COc1ccc2oc(=O)c(C(=O)Nc3ccccc3O)cc2c1 | 12%
CCN(CC)CCCNC(=O)CNC(=O)c1nn(-c2ccc(OC)cc2)c(=O)c2ccccc12 | 17.5%
O=C(/C=C/c1ccc(F)cc1)N1CCN(S(=O)(=O)/C=C/c2ccccc2)CC1 | 12.6%
COc1cc(NC(=O)Cc2c(C(=O)O)n(C)c3ccccc23)cc(OC)c1OC | 25.2%
CC(=O)NC(Cc1ccccc1)C(=O)NC1CCN(C(=O)NC2CCCCC2)CC1 (stereo not drawn) | 5.85%
COC(=O)C(Cc1ccccc1)NC(=O)CNC(=O)c1ccc(Br)o1 (stereo not drawn) | 6.39%
COc1ccc(S(=O)(=O)NCc2ccc(C(=O)N(C)Cc3ccco3)cc2)cc1 | 1.13%
Cc1cc(C)nc(SCCN(C)C)n1.O=C(O)CCC(=O)O | 11.6%
CC(=O)Nc1ccc2c(c1)N(C(=O)CN(C)C)c1ccccc1CC2 | 9.16%
COC(=O)Cc1ccc(OCc2ccc(Cl)nc2)cc1 | -1.27%
Cn1cnnc1SCC(=O)NN(c1ccccc1)c1ccccc1 | 5.71%
COc1cccc(C(c2nnnn2CS(=O)(=O)c2ccc(C)cc2)N2CCN(C)CC2)c1OC (stereo not drawn) | 5.25%
Clc1cccc(CNCCc2ccc3c(c2)OCO3)c1.O=C(O)C(=O)O | 1.45%
CCCN=C1CC(C)(C)CC(=O)/C1=C(/O)CCCN1C(=O)c2ccccc2C1=O | 4.75%
O=C(Cn1c(CO)nc2ccccc21)NC1CCCCCC1 | 5.06%
Cc1nnsc1C(=O)N/N=C/c1ccc2ccccc2c1O | 15.1%
COc1ccc(NS(=O)(=O)c2cc3c(cc2C)N(C(C)=O)CCO3)cc1OC | 10.3%
Cc1ccc(-c2cc(=O)c3cc(C)ccc3[nH]2)cc1 | 11.8%

Compound | hERG current change (%, negative = inhibition) at 1uM
COc1ccc(C(CNC(=O)COc2ccc(F)cc2Cl)N2CCCCC2)cc1 (stereo not drawn) | 6.84%
Cc1c(C(=O)NCCN(C)C)oc2ccc(S(=O)(=O)N3CCC4(CC3)OCCO4)cc12 | 11.6%
O=c1[nH]c(=O)n(C2CCCCC2)c(O)c1C=Nc1ccc(N2CCOCC2)cc1 | -4.38%
Nc1cc(S(=O)(=O)Nc2ccc(Br)cc2)ccc1Cl | 3.07%
C=CC[n+]1c(-c2ccc(OC)cc2)csc1NNC(=O)Nc1ccccc1.[Br-] | 7.39%
Cc1c(C)c2ccc(OCC(=O)NCCCN3CCCC3=O)cc2oc1=O | 13.4%
O=C(Nc1ccc(Br)cc1)C1CCCN(C2=NS(=O)(=O)c3ccccc32)C1 (stereo not drawn) | -14%
COc1cnc(-c2ccccn2)nc1Oc1ccc(F)cc1F | 1.83%
CC(CCc1ccccc1)NC(=O)Cn1cccc1C(=O)c1ccccc1 (stereo not drawn) | 7.67%
CCCc1cc(C(=O)OCC(=O)N2CCN(c3ccc(OC)cc3)CC2)sc1C | -34.6%
O=C1CC(C(=O)Nc2ccccc2)C2(CCCCC2)O1 (stereo not drawn) | 9.21%
N#Cc1c(NC(=O)CSc2nnc(-c3ccccc3)o2)sc2c1CCCC2 | 7.35%
O=C1CC(=O)CC(c2ccco2)C1 | 8.27%
CC1CCCN(C(=O)COc2ccc3c(c2)OCO3)C1 (stereo not drawn) | 10.2%
CC(C)C[C@H](NC(=O)OC(C)(C)C)c1nnc(SCc2ccccc2)o1 | 5.32%
Cc1cc(NC(=O)C(C)SCC(=O)OCc2c(Cl)cccc2Cl)no1 (stereo not drawn) | 7.55%
Cc1onc(-c2ccccc2Cl)c1C(=O)NC(=S)NCc1cccnc1 | 5.58%
O=C(NCCN1CCOCC1)c1c[nH]c2ccc(S(=O)(=O)N3CCOCC3)cc2c1=O | 1.18%
Cc1cccc(C)c1NC(=O)COC(=O)c1cccnc1 | 6.24%
C#CCOCCOCCOCCNc1nc(N2CCN(C(=O)CCCCCCCCCCNC(=O)Cn3cc(C[C@@H](C)O)nn3)CC2)nc(N2CCN(C(=O)CCCCCCCCCCNC(=O)[C@H](CCCCN)n3cc(C[C@@H](C)CC)nn3)CC2)n1 | 5.31%
CCC1CN(C(=O)NCc2ccc(F)cc2)c2cc(C)ccc2O1 (stereo not drawn) | 8.44%
CCn1c(=O)c(CCC(=O)N2CCN(c3ccccn3)CC2)c(C)c2c(C)nn(-c3cccc(C)c3)c21 | 19.8%

Compound | hERG current change (%, negative = inhibition) at 1uM
CC(C)(C)C1CCc2c(sc(NC(=O)C3CCCO3)c2C(N)=O)C1 (stereo not drawn) | 0.567%
COc1ccc(C(=O)NC2CCCc3c2cnn3-c2cccc(C)c2C)o1 (stereo not drawn) | -37.6%
O=C(OCC(=O)c1c[nH]c2ccccc12)c1cccc(O)c1 | 4.59%
COc1cccc(CNS(=O)(=O)c2cc3c(cc2C)NC(=O)CO3)c1 | -0.176%
Cn1ncnc1SCc1cn2cccnc2n1 | 17.7%
Cc1ccc(N2C(=O)CSC2=S)cc1C | 8.86%
CC(Nc1ccc(F)cc1F)C(=O)NC(=O)NC1CCCCC1 (stereo not drawn) | 15.1%
CC(C(=O)N1CCN(c2ccc([N+](=O)[O-])cc2)CC1)N1C(=O)C2CC=CCC2C1=O (stereo not drawn) | -50.2%
CCN(CC)CCNC(=O)/C(=C\c1cccn1C)NC(=O)c1cccs1 | -5.64%
COc1ccc(CCNC(=O)COc2ccc(S(=O)(=O)N3CCOCC3)cc2)cc1 | 9.31%
COc1cccc(NC(=O)[C@H](CC(C)C)NC(=O)[C@@H]2Cc3ccccc3CN2)c1 | -0.182%
CC1(C)Cc2c(sc(NC(=O)C(C)(C)C)c2C#N)C(C)(C)N1 | 7.69%
O=C(Oc1cccc(NC2=NS(=O)(=O)c3ccccc32)c1)c1ccncc1 | 6.41%
CCCC(c1nnnn1C1CCCCC1)N1CCN(c2ncccn2)CC1.Cl (stereo not drawn) | 1.23%
O=C(COC(=O)c1cnccn1)c1ccc(-c2ccccc2)cc1 | 16%
O=C(COC(=O)c1ccccc1)Nc1ccccc1N1CCOCC1 | -3.95%
COc1ccc(-n2c(C)cc(/C=C3/SC(=O)N(CC(=O)N4CCOCC4)C3=O)c2C)cc1 | 12%
CC12CCC(=O)N1C(C(=O)Nc1nc(-c3ccccc3Cl)cs1)CS2 (stereo not drawn) | 6.51%
CCCn1c(N)c(C(=O)CSc2nnc(N)s2)c(=O)[nH]c1=O | 0.931%
COc1ccc(CC2C(=O)NC(=O)N(c3ccccc3)C2=O)c(OC)c1 (stereo not drawn) | 13.3%
COc1ccc(S(=O)(=O)NCc2ccc(C(=O)NCc3cccnc3)cc2)cc1 | 0.596%
